Experimental findings from patent publication US8975247B2, “Methods and compositions of treating a flaviviridae family viral infection” (priority 2009, dated 2015) are described below.

Like-named read-outs stand apart in the source and are kept apart here.

A word on the EC50: it is the concentration that produces a half-maximal response. The low end stands for a more potent agent, the high end for a less potent agent.

A short description of data set [1]: MTT assay for HCV replicon reporter cell lines (cell toxicity). The note with it: human.
The test system of a further data set is Huh7.5 cells. Format: cell-based.
Data set [2] has as its system HCV genotype 2a infectious clone. In words: HCV genotype 2a infectious clone assay (Renilla luciferase). Format: cell-based. The note with it: for activity at 5 µM: Hepatitis C virus, read-out: 2a % activity @ 5 μM, % replication activity of control remaining at 5 μM test compound.

With `CC1CC(NCc2nc3ccccc3n2Cc2ccc(Cl)cc2)CCN1` (stereo not drawn) [EBP809], the 50% effective concentration (EC50) at 48 h in data set [1] was greater than 25 µM.

For the molecule `Cc1cc2nc(C(C)CC3CCNCC3)n(Cc3ccc(Cl)cc3)c2cc1C` (stereo not drawn) [EBP796], in data set [1], the concentration for a half-maximal effect (EC50) at 48 h is greater than 25 µM.

Take `Clc1ccc(Cn2c(/C=C/C3CCN(C4CCCC4)C3)nc3cc(Br)ccc32)cc1` (stereo not drawn) [EBP934]: in data set [1], the concentration for a half-maximal effect (EC50) at 48 h is greater than 25 µM.

In the case of `CN1CCC(CCc2nc3cc(-c4ccco4)ccc3n2Cc2ccc(Cl)cc2)C1` (stereo not drawn) [EBP802], in data set [1], the EC50 at 48 h worked out at 21 µM.

`Clc1ccc(Cn2c(/C=C\C3CCN(C4CCCC4)C3)nc3cc(Br)ccc32)cc1` (stereo not drawn) [EBP935] yielded a concentration for a half-maximal effect (EC50) at 48 h in data set [1] greater than 25 µM.

`Cc1ccc2nc(CN3CCC[C@H]3CO)n(Cc3ccc(Cl)cc3)c2c1` [EBP426] yielded an EC50 at 48 h in data set [1] greater than 25 µM.

`Cc1cc2nc(/C=C3\CCNC(C)C3)n(Cc3ccc(Cl)cc3)c2cc1C` (stereo not drawn) [EBP869] yielded an EC50 at 48 h in data set [1] greater than 25 µM.

With `Clc1ccc(Cn2c(CNC3CCNCC3)nc3ccccc32)cc1` [EBP805], in data set [1], the EC50 at 48 h is greater than 25 µM.

Regarding `Clc1ccc(Cn2c(/C=C\C3CCN(CCCC4CCCCC4)C3)nc3cc(Br)ccc32)cc1` (stereo not drawn) [EBP937], the EC50 at 48 h in data set [1] is greater than 25 µM.

As to `CN1CCC(/C=C/c2nc3cc(Br)ccc3n2Cc2ccc(Cl)cc2)C1` (stereo not drawn) [EBP773], the 50% effective concentration (EC50) at 48 h in data set [1] was greater than 25 µM.

`Cc1cc2nc(C=C3CC4CCC(C3)N4)n(Cc3ccc(Cl)cc3)c2cc1C` [EBP870] returned a half-maximal effective concentration (EC50) at 48 h in data set [1] of 6.3 µM.

As to `Cc1cc2nc(/C=C/C3CCCNC3)n(Cc3ccc(Cl)cc3)c2cc1C` (stereo not drawn) [EBP378], the EC50 at 48 h in data set [1] was greater than 25 µM.

`Clc1ccc(Cn2c(CNCC3CCCNC3)nc3ccccc32)cc1` (stereo not drawn) [EBP928] gave an EC50 at 48 h in data set [1] greater than 25 µM.

`C/C(=C\C1CCNCC1)c1nc2cc(C)c(C)cc2n1Cc1ccc(Cl)cc1` [EBP771] had an EC50 at 48 h in data set [1] greater than 25 µM.

Turning to `Clc1ccc(Cn2c(CNC3CC4CCCC(C3)N4)nc3ccccc32)cc1` (stereo not drawn) [EBP926], the 50% effective concentration (EC50) at 48 h in data set [1] was greater than 25 µM.

For the molecule `Cc1cc2c(ncn2Cc2ccc(Cl)cc2)c(NC(=O)C(C)C)c1C` [EBP240], in the data set on Huh7.5 cells (human, 3 days, 5 μM), the “2a Cell Viability @ 5 μM” value is greater than 100%. Further, the “2a Cell Viability @ 10 μM” value in the data set with Huh7.5 cells (human, 3 days, 10 μM) was 99%. Further, the activity at 5 µM in data set [2] is 86%.

On to `Cc1cc2ncn(Cc3ccc(C#N)cc3)c2cc1C` [EBP061], for which the “2a Cell Viability @ 5 μM” value in the data set with Huh7.5 cells (human, 3 days, 5 μM) is on record as 86%. Also, in the data set on Huh7.5 cells (human, 3 days, 10 μM), the “2a Cell Viability @ 10 μM” value is 88%. Further, in data set [2], the activity at 5 µM was 76%.

Consider `Cc1cccc(Cn2cnc3c(NS(C)(=O)=O)c(C)c(C)cc32)c1` [EBP167], for which the “2a Cell Viability @ 5 μM” value with Huh7.5 cells (human, 3 days, 5 μM) was >100, >100%. Moreover, the “2a Cell Viability @ 10 μM” value in the data set on Huh7.5 cells (human, 3 days, 10 μM) is given as >100, >100%. Also, the activity at 5 µM in data set [2] turned out to be 83%.

In the case of `Cc1cc2nc(-c3ccc(=O)[nH]c3)n(Cc3ccc(Cl)cc3)c2cc1C` [EBP129], the “2a Cell Viability @ 5 μM” value in the data set on Huh7.5 cells (human, 3 days, 5 μM) was 90%. For the same molecule, in the data set with Huh7.5 cells (human, 3 days, 10 μM), the “2a Cell Viability @ 10 μM” value amounted to 78%. Moreover, in data set [2], the activity at 5 µM was found to be 79%.

Regarding `Clc1ccc(Cn2cnc3cc(Cl)ccc32)cc1` [EBP207], in the data set with Huh7.5 cells (human, 3 days, 5 μM), the “2a Cell Viability @ 5 μM” value is reported as greater than 100%. The “2a Cell Viability @ 10 μM” value in the data set on Huh7.5 cells (human, 3 days, 10 μM) came to 88%. The activity at 5 µM in data set [2] is 63%.

Turning to `Cc1cc2c(ncn2Cc2ccc(Cl)cc2)c(NS(C)(=O)=O)c1C` [EBP243], the “2a Cell Viability @ 5 μM” value in the data set with Huh7.5 cells (human, 3 days, 5 μM) is >100, >100%. The “2a Cell Viability @ 10 μM” value in the data set with Huh7.5 cells (human, 3 days, 10 μM) is reported as >100, >100%. Moreover, the activity at 5 µM in data set [2] turned out to be 90%.

As to `Cc1cc2nc(CN3CCCC3)n(Cc3ccc(Cl)cc3)c2cc1C` [EBP126], in the data set on Huh7.5 cells (human, 3 days, 5 μM), the “2a Cell Viability @ 5 μM” value is listed as greater than 100%. For the same molecule, the “2a Cell Viability @ 10 μM” value in the data set with Huh7.5 cells (human, 3 days, 10 μM) is 77%. The activity at 5 µM in data set [2] worked out at 65%.

Take `Cc1cc2nc(/C=C/c3ccccc3)n(Cc3ccc(Cl)cc3)c2cc1C` [EBP101]: the “2a Cell Viability @ 5 μM” value in the data set with Huh7.5 cells (% cell survival at 5 μM) is listed as greater than 100%. Also, the “2a Cell Viability @ 10 μM” value in the data set with Huh7.5 cells (% cell survival at 10 μM) stood at 95%. Also, the activity at 5 µM in data set [2] came out at 57%.

With `Cc1cc2nc(CN3CCCC3C)n(Cc3ccc(Cl)cc3)c2cc1C` (stereo not drawn) [EBP231], the “2a Cell Viability @ 5 μM” value in the data set with Huh7.5 cells (human, 3 days, 5 μM) is greater than 100%. Moreover, in the data set on Huh7.5 cells (human, 3 days, 10 μM), the “2a Cell Viability @ 10 μM” value came to 89%. The activity at 5 µM in data set [2] worked out at 49%.

As for `Fc1cc2ncn(Cc3ccc(Cl)cc3)c2cc1F` [EBP208], the “2a Cell Viability @ 5 μM” value in the data set with Huh7.5 cells (human, 3 days, 5 μM) is on record as >100, >100%. Besides, the “2a Cell Viability @ 10 μM” value with Huh7.5 cells (human, 3 days, 10 μM) is >100, >100%. Also, the “2a % activity @ 5 μM” value in data set [2] (% replication activity of control remaining at 5 μM test compound) stood at 80%.
